# Source: PubChem BioAssay AID1508623 (National Center for Advancing Translational Sciences (NCATS), 2021)
# In all, about 48,000 compounds went through this assay and about 450 (0.94%) were called active. Another 19% or so got no clear call; they are omitted. Calls follow the shape of the dose curve; as a rule, active = well fitted inhibition curve with a large enough effect; inconclusive = small, poorly fitted or top-dose-only effect; inactive = no such curve, though single readings can be large or run the other way. The list shows a part of the results.
# Assay: Primary qHTS for Identification of Small Molecule Inhibitors of Huntingtin Promoter Activity; also: nearly all actives have a fitted effect of over 50% in size
# Conditions: HEK293 HTT promoter firefly luciferase reporter (activity 0% = vehicle and -100% = no light), 24 h; series mostly up to 57.5 µM; activity change, negative = inhibition: at the top concentration
# Outline: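 Quantitative HTS used concentration series of up to 57.5 uM final on HEK293 luciferase reporter cells, 24 h at 37 degrees C. Readout was Dual-Glo firefly luminescence.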
row,SMILES,"activity change, negative = inhibition"
1,COc1ccc(CNC(=O)C2CCN(S(=O)(=O)c3c(C)noc3/C=C/c3ccccc3F)CC2)cc1,inactive: -22.8%
2,CC(=O)Nc1nc2n(n1)C(c1ccc(F)cc1)C=C(c1ccc(Cl)cc1)N2 (stereo not drawn),inactive: -16.8%
3,COc1ccc(CCNC(=O)CCn2c(=O)c3ccccc3n(Cc3ccccc3F)c2=O)cc1OC,inactive: -15.7%
4,O=c1cc(-c2ccc(O)cc2)oc2cc(O)cc(O)c12,inactive: 17.2%
5,O=C(O)Cc1csc(-c2ccc(Cl)cc2)n1,inactive: -7.27%
6,CC(=O)c1cccc(NC(=O)C2CCN(S(=O)(=O)c3ccc4c(c3)CCCN4C(C)=O)CC2)c1,inactive: -8.02%
7,Cc1ccc(-c2nc(C)c(CCNC(=O)c3cccs3)s2)cc1,inactive: -17.4%
8,Cc1ccc(CN2CCCn3nc(C(=O)NCCc4ccccc4C)cc3C2=O)cc1,inactive: -32.9%
9,COc1cc(C(=O)Nc2ccccc2-c2nc(-c3ccccc3)no2)cc(OC)c1OC,inactive: 2.64%
10,CCN(CC)c1nc2ccccc2nc1C(=O)Nc1ccc(C(C)=O)cc1,inactive: -29.1%
11,Cc1ccc(C)c(NC(=O)CN(C)S(=O)(=O)c2cccc3nsnc23)c1,inactive: -13.4%
12,Cc1ccc(-n2nc(C(=O)Nc3ccc(F)cc3F)c3c4ccccc4n(C)c3c2=O)cc1,inactive: -24.7%
13,Cc1cccc(N(C)c2nc3ccc(C(=O)c4ccccc4)cc3n3c(C)nnc23)c1,inactive: -29.2%
14,CC(C)(C)C1CCc2c(sc(NC(=O)c3cc4ccccc4c(=O)o3)c2C(N)=O)C1 (stereo not drawn),inactive: 1.39%
15,Cc1ccc(C)c(NC(=O)Cn2c(=O)n(CCC(C)C)c(=O)c3cccnc32)c1,inactive: -14.7%
16,COc1ccccc1NC(=O)Cn1cc(S(=O)(=O)Cc2ccccc2)c2ccccc21,inactive: -25.6%
17,CCCCCOc1ccc(/C=C/C(=O)Nc2sc(C)c(C)c2C(=O)OCC)cc1OC,inactive: 1.82%
18,CCN(CC)CCNC(=O)Cn1ncc2c3ccccc3n(Cc3ccc(Cl)cc3)c2c1=O,inactive: -3.63%
19,Cc1ccc(-c2csc(-c3nc(-c4ccc(Br)s4)cs3)n2)cc1,inactive: -3.79%
20,COc1ccc(NC(=O)Cn2nnc(C(=O)NCc3cccs3)c2N)cc1,inactive: -16.5%
21,Cc1ccc(NC(=O)CSc2nc(=O)n(Cc3cccnc3)c3c2CCC3)cc1F,inactive: -19.6%
22,CCc1cccc(C)c1NC(=O)c1cc(S(=O)(=O)N(Cc2ccc(C(=O)OC)cc2)Cc2ccc(OC)c(OC)c2)ccc1F,inactive: -18.3%
23,Cc1ccccc1C(=O)N1CC/C(=N\OS(=O)(=O)O)c2ccc(Cl)cc21,inactive: -2.74%
24,COc1ccc(NC(=O)CN2C(=O)CC(c3ccc(C)c(C)c3)=Nc3ccccc32)cc1OC,inactive: 28.3%

row,SMILES,"activity change, negative = inhibition"
1,CCC(CC)C(=O)Nc1ccc2nc(SCC(=O)N3CCCC3)sc2c1,inactive: -15.8%
2,CC(C)CCNC(=O)CN1C(=O)CSc2ccc(S(=O)(=O)N3CCC(C)CC3)cc21,inactive: -8.38%
3,COc1ccc(NC(=O)[C@H]2O[C@@H]3OC(C)(C)O[C@@H]3[C@H]3OC(C)(C)O[C@H]32)c(OC)c1,inactive: 24.3%
4,CCOC(=O)C1CCCN(c2nc3c(S(=O)(=O)c4ccc(CC)cc4)nnn3c3ccsc23)C1 (stereo not drawn),inactive: -1.61%
5,Cc1ccc2c(c1)c1c(c(=O)n(-c3cccc(Cl)c3)c(=O)n1CC(=O)NCC1CCCO1)n2C (stereo not drawn),inactive: -9.58%
6,Cn1c(=O)[nH]c(=O)c2c1nc(N1CCOCC1)n2Cc1ccccc1,inactive: -5.22%
7,CCc1cccc(NC(=O)CCc2nc3cccnc3n2Cc2ccc(OC)cc2)c1,inactive: -25.5%
8,C=C1C(=CC=C2CCC[C@]3(C)[C@@H]([C@H](C)C=C[C@H](C)C(C)C)CC[C@@H]23)C[C@@H](O)C[C@@H]1O,inactive: 19.7%
9,CCOC(=O)Cc1ccc(NC(=O)Nc2c[nH]c(=O)[nH]c2=O)cc1,inactive: -7.64%
10,Cc1ccccc1OCC(=O)Nc1ccc(-c2nc3ccccc3o2)cc1,inactive: 26.7%
11,COc1ccc(CN2C(=O)C(NC(=O)c3cccc(C)c3)(C(F)(F)F)N=C2c2ccccc2)cc1 (stereo not drawn),inactive: -20.7%
12,Cn1c2ccccc2c2cnn(CC(=O)NCCCN3CCCCC3)c(=O)c21,inactive: 7.02%
13,CCc1ccccc1NC(=O)CSc1nncn2c1cc1oc(C)cc12,inactive: -25.7%
14,CCOC(=O)C(CC)n1nnc2sc(-c3ccccc3)cc2c1=O (stereo not drawn),inactive: 16.5%
15,O=C(NCCS(=O)(=O)N1CCN(c2ccc(F)cc2)CC1)C(c1ccccc1)c1ccccc1,inactive: -24.8%
16,Cc1ccc2oc(=O)c3cnn(CC(=O)N4CCN(c5ccc(F)cc5)CC4)c3c2c1,inactive: -1.81%
17,CC(C)Oc1ccccc1-c1nc(SCC(=O)c2ccc(F)cc2)n[nH]1,inactive: -37.9%
18,Cc1ccc(CNC(=O)CSc2nc3c(sc4ccccc43)c(=O)n2CCCOC(C)C)cc1,inactive: -15%
19,Cc1ccc(-n2c(=O)c3sc4ccccc4c3n(CC(=O)NC3CCCC3)c2=O)cc1C,inactive: -21.2%
20,COc1ccc(OC)c(CCNC(=O)c2cc3c(s2)-c2c(C)cccc2OC3)c1,inactive: -27.3%
21,CCOc1ccc(NC(=O)C(Cc2ccccc2)NS(=O)(=O)c2ccc3c(c2)oc(=O)n3C)cc1 (stereo not drawn),inactive: -32%
22,Cc1c(Cl)cccc1-c1ccc(CNCCSc2nnnn2-c2ccccc2)o1,inactive: 13.5%
23,CCN(CC)S(=O)(=O)c1ccc(NC(=O)CN(c2ccccc2)S(=O)(=O)N(C)C)cc1,inactive: -11.9%
24,CCOc1ccc(CNC(=O)c2ccc3c(c2)c(C)c(C)n3Cc2ccccc2)cc1OC,inactive: 10.2%

row,SMILES,"activity change, negative = inhibition"
1,Cc1ccc(-n2ncc(C(=O)N3CCN(c4cc(Cl)ccc4C)CC3)c2C2CCN(C(=O)OC(C)(C)C)CC2)cc1,inactive: 0.305%
2,COc1ccc(CCNC(=O)c2ccc3c(c2)N(Cc2ccccc2)C(=O)c2ccccc2S3=O)cc1OC (stereo not drawn),inactive: 13.5%
3,COC(=O)c1ccc(Cl)cc1NC(=O)Nc1nnc(N2CCCC2)s1,inactive: 7.92%
4,COc1ccc(CNc2ncnc3c2nc2n3CCCC2)cc1,inactive: -14.4%
5,COC(=O)CSc1ncc2c(n1)-c1ccccc1N(Cc1ccc(Cl)cc1)S2(=O)=O,inactive: -12.7%
6,COc1ccc(CCn2c3c(c(=O)[nH]c2=O)C(NC(=O)c2ccc(Cl)cc2)(C(F)(F)F)C(=O)N3)cc1OC (stereo not drawn),inactive: -1.51%
7,Cc1cccc(CNC(=O)Cn2c(-c3cccs3)cc3ccccc32)c1,inactive: -29.9%
8,Cc1cccc(OCC(=O)Nc2ccccc2C(=O)OCc2cc(=O)n3ccsc3n2)c1,inactive: -5.72%
9,Cn1ncc2c(Nc3cc(C(F)(F)F)ccc3Cl)ncnc21,inactive: -10.3%
10,CC(NC(=O)c1ccc2c(c1)N(Cc1ccc(Cl)cc1)C(=O)CS2)c1ccccc1 (stereo not drawn),inactive: -17.7%
11,O=C(NNC(=O)c1ccc(CNS(=O)(=O)c2ccc(F)c(Cl)c2)cc1)c1ccccc1,inactive: 30.5%
12,CCc1ccc(-n2nnc(-c3nc(-c4cccs4)no3)c2N)cc1,inactive: 83.2%
13,CC1CCN(C(=O)CSc2n[nH]c(-c3ccc(F)cc3)n2)CC1,inactive: -20.8%
14,COc1ccc2c(c1)c1c(c(=O)n(-c3ccccc3C)c(=O)n1Cc1cccc(C(F)(F)F)c1)n2C,inactive: -14.1%
15,CC(C)OC(=O)c1ccc(Cn2nnc3sc4c(c3c2=O)CCCC4)cc1,inactive: -15.1%
16,O=C(Cn1ccnc1[N+](=O)[O-])NCCO,inactive: 11.9%
17,CCCN(c1c(C)n(C)n(-c2ccccc2)c1=O)S(=O)(=O)c1ccc(C)cc1,inactive: -9.57%
18,CC(C)(C)C(=O)Nc1ccc(-c2nc3ccc(NC(=O)C(C)(C)C)cc3[nH]2)cc1,inactive: 50.3%
19,Cc1ccc(S(=O)(=O)NCC2CCC(C(=O)NCCc3ccccc3)CC2)cc1 (stereo not drawn),inactive: -4.44%
20,CCOC(=O)c1cnc2cc(C(F)(F)F)ccc2c1Nc1ccc(F)cc1F,inactive: -21.9% [at 11.5 µM]
21,CC(=O)Nc1ccc(S(=O)(=O)NC2(C(F)(F)F)C(=O)Nc3c2c(=O)[nH]c(=O)n3-c2cccc(Cl)c2)cc1 (stereo not drawn),inactive: -17.8% [at 11.5 µM]
22,CCC(=O)N1CCc2cc(CNS(=O)(=O)c3cc(OC)ccc3OC)ccc21,inactive: -14.4%
23,O=C(c1ccc(F)cc1)c1cn(Cc2ccccc2F)c2cc3c(cc2c1=O)OCCO3,inactive: -5.83%
24,Oc1ccc(Cl)cc1C1=Nc2ccccc2N=C(c2ccccc2)C1,inactive: -0.9%

row,SMILES,"activity change, negative = inhibition"
1,Cc1ccc(CSc2nc3cccnc3n2Cc2ccc(C(=O)NCc3ccco3)cc2)cc1,inactive: -11.7%
2,Cc1ccc(-c2nc3c(c(SCc4ccc(Br)cc4)n2)Cc2c(CO)cnc(C)c2O3)cc1,inactive: 23.9%
3,CC(=O)OCC(COC(C)=O)OC(C)=O,inactive: 7.37%
4,O=C(CSc1nc2c([nH]c3ccccc32)c(=O)n1-c1ccc(Cl)cc1)N1CCc2ccccc21,inactive: 3.66%
5,CSc1cccc(NC(=O)c2cnn(-c3ccc(F)cc3)c2-n2cccc2)c1,inactive: -15.6%
6,COc1ccc(CCNC(=O)CCc2c(C)c3cc4c(C)c(C)oc4cc3oc2=O)cc1OC,inactive: 5.51%
7,O=C(Cn1ncn2c(cc3sccc32)c1=O)NCCc1ccccc1,inactive: 4.55%
8,Cc1ccc2c(=O)cc(C(=O)Nc3ccc(S(=O)(=O)N(C)c4ccccc4)cc3)oc2c1C,inactive: -24.5%
9,COc1ccc(-c2noc(CN(C)S(=O)(=O)c3c(C)cc(C)cc3C)n2)cc1OC,inactive: -3.52%
10,CCC(C(=O)Nc1cccc(Cl)c1C)n1nc(C)c2sc3ccccc3c2c1=O (stereo not drawn),inactive: -2.19%
11,COc1ccc(C)cc1NC(=O)c1ccc(NS(=O)(=O)c2c(C)noc2C)cc1,inactive: -3.43%
12,CC(=O)N1c2ccccc2C(=O)C1N1CCN(c2ccccc2F)CC1 (stereo not drawn),inactive: -17.4%
13,CCOC(=O)c1ccc(NC2=CC(c3ccc(OCC)cc3)N(c3ccc(C(=O)OCC)cc3)C2=O)cc1 (stereo not drawn),inactive: -5.69%
14,CCOC(=O)c1cnc2cc(C(F)(F)F)ccc2c1Nc1cc(C)ccc1OC,inactive: -13.1% [at 11.5 µM]
15,Cc1ccc(-c2nc(CCNC(=O)c3ccc(C)c(C)c3)cs2)cc1,inactive: -30.7%
16,COc1ccccc1-c1nc2n(n1)C(c1ccccc1Cl)C(C(=O)Nc1cccnc1)=C(C)N2 (stereo not drawn),inactive: -10.8%
17,CCCCn1cc(S(=O)(=O)c2ccc(C)cc2)c(=O)c2cc(F)c(N3CCCCC3)cc21,inactive: -2.28%
18,Cc1cc(O)c(C(c2ccccc2)N2CCCCC2)c(=O)n1Cc1ccco1 (stereo not drawn),inactive: -6.25%
19,CCOc1ccccc1NC(=O)CSc1nnc2[nH]c(=O)cc(C)n12,inactive: -5.61%
20,COCCCNC(=O)C1CCN(Cc2cc3ccccc3n2Cc2ccccc2C)CC1,inactive: -14.2%
21,COc1ccc(NC(=O)c2c(NCc3cccs3)sc3c2CCC(C)C3)c(OC)c1 (stereo not drawn),inactive: -12%
